Binding signal data for 6 molecules are collected here from article PMC12136788.

The chains are these.
B1: chr7:151048522:151048523:+_ENSG00000013374_ENST00000566856|hu_mus|hu_hu_hu_mus_True|48_88 (ssRNA)
RNA: GGGAGUUCUACAGUCCGACGAUCCUGUUUCUUAUUUAUUACGAUCUUGAUAUAAUUUUCUUGAAAUCCGAAAGUUUCAGCUAUUUGGGACCUCAGUUCUCUACCAGUGACAUGCAAGCGGGUCUCCAACAAGCUUUUCUUAUCCAACAGAGGAUUGAGCAUCA
B2: chrX:100667754:100667755:+_ENSG00000126945_ENST00000316594|hu_mus|FALSE|FALSE (ssRNA)
RNA: GGGAGUUCUACAGUCCGACGAUCUCCAUAUCUAUGAUCAGACAUUCCUGAGAAACAGUAGUUUAGGUCUCUUCCAAAUCUAUCAGACCCAAAACCAUACCCGUCAUUAUAACCUCCAUAGUCAUCAUAGCCUCCAUACCCUCCCAACAGAGGAUUGAGCAUCA
B3: chr6:51419726:51419727:-_ENSMUSG00000004980_ENSMUST00000114459|mus_hu|FALSE|FALSE (ssRNA)
RNA: GGGAGUUCUACAGUCCGACGAUCUCCAUCGCGGACUCAGUCGCUUCAGCCCGAUUUCCCGCAGCCGAGCGAGAUGAGAGAGAUCUCCGCGGACGAACACGAACCGGACUCGUCCUGGCGCUGUAGUGAGAACUGCCGCUGCUCCAACAGAGGAUUGAGCAUCA
B4: chr4:144460044:144460045:+_ENSG00000153147_ENST00000283131|hu_mus|hu_hu_hu_mus_False|48_88 (ssRNA)
RNA: GGGAGUUCUACAGUCCGACGAUCACGGUCCAUAGCCUGAAGAUCAACUUGGGGAUUCCAAUCUGAGUCAUAUAAAAUGACUACAUCAGCAGUCGCAAGAUUGAUGCCCAGACCACCAGCACGUGUGCUUAGCAUAAAUACAAACAACAGAGGAUUGAGCAUCA
B5: chr1:186330019:186330020:-_ENSG00000047410_ENST00000367478|hu_mus|FALSE|FALSE (ssRNA)
RNA: GGGAGUUCUACAGUCCGACGAUCCUCAAGCAUUUCUUUUUCCAUCUGAUCUUUAGAUUCUUCCACUUGUAGAAGAUGAUCUUGUAUUGUUUUGUUGGCUUCUCCUGCUUCUUUGAGCAGUUUGUGCAGCUCGUCCACUGCCCGCAACAGAGGAUUGAGCAUCA
B6: chr1:225611761:225611762:-_ENSG00000143815_ENST00000272163|hu_mus|hu_hu_hu_mus_True|88_98 (ssRNA)
RNA: GGGAGUUCUACAGUCCGACGAUCCCAGGCCAUCGGCCUCUUACCACUUCACCAUCGACAAACUUCCUACUUGGCAUUUUCUAAAAUUAGUCUGGCCGCGCUCCGGCGGGAACUCCAGCCACUCCAGGACAGUCACCAGCAGCCCAACAGAGGAUUGAGCAUCA

The other results are listed elsewhere or left out.

The target in the assay is T1, UNK ZnF1-3 (human, UniProt Q9C0B0 31-174).
T1 sequence: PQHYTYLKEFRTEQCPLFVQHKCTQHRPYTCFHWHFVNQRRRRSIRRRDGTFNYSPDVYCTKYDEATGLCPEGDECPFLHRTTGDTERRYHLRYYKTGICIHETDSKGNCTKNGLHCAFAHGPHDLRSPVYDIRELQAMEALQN
Briefly: nsRBNS (natural sequence RNA bind-n-seq); RBNS binding buffer (assumed for nsRBNS): 25 mM Tris pH 7.5, 150 mM KCl, 3 mM MgCl2, 0.01% Triton X-100, 500 ug/ml BSA, 20 U/ml SUPERase-In, 4 C; UNK is unkempt and MSI1 is Musashi-1; names of the RNAs are library labels; protein concentration not given here; high values mean tight binding.
B1 returned a binding signal of 0.883 enrichment R.

Molecule B2 gave a binding signal of 1.04 enrichment R.

As for B3, the binding signal is 0.724 enrichment R.

For B4, the binding signal was found to be 1.2 enrichment R.

On to B5, for which the binding signal was found to be 0.232 enrichment R.

The molecule B6 registered a binding signal of 1.31 enrichment R.
